From the supplement of paper PMC6135742 come the findings set out here.

Structures are written as SMILES. Values joined by “and” are separate entries in the source; they are usually repeats but may differ in a detail not shown here. Identical values can stand only once. Counter-ions that a name gives are not always drawn. ± gives the standard deviation of the averaged measurements. In all, about 2,600 compounds were measured (“total cell number (DAPI+ nuclei) relative to DMSO vehicle control”: median about -1.4, lowest 2% from about -23 on). Some of the results follow.

This test relates to jimpy (Plp1 jimpy) mouse iPSC-derived oligodendrocyte progenitor cells. Description: total cell number (DAPI+ nuclei) relative to DMSO vehicle control (SDs above negative control mean); higher = more surviving cells. Conditions: 10 µM; 3 days.
As for `Nc1cc(Cl)c(NC2=NCCN2)c(Cl)c1` [p-Aminoclonidine hydrochloride], the total cell number was -1.08.

Take `CC(C)OC(=O)OCOP(=O)(CO[C@H](C)Cn1cnc2c(N)ncnc21)OCOC(=O)OC(C)C` [Tenofovir Disoproxil Fumarate]: the total cell number was -9.72.

On to `O=C(Nc1cccc(C(=O)Nc2ccc(S(=O)(=O)O)c3cc(S(=O)(=O)O)cc(S(=O)(=O)O)c23)c1)Nc1cccc(C(=O)Nc2ccc(S(=O)(=O)O)c3cc(S(=O)(=O)O)cc(S(=O)(=O)O)c23)c1`, for which the total cell number was -0.289.

Take `Cc1ccc(S(=O)(=O)Cc2nc(-c3ccc(C(=O)NCc4cccnc4)cc3)oc2C)cc1`: the total cell number is -13.3.

Take `CNC(=O)c1cc(Oc2ccc(NC(=O)Nc3ccc(Cl)c(C(F)(F)F)c3)cc2)ccn1` [Sorafenib]: the total cell number amounted to 3.2.

`CNC(=O)c1cc(Oc2ccc(NC(=O)Nc3ccc(Cl)c(C(F)(F)F)c3)cc2)ccn1` [Sorafenib Tosylate] displayed a total cell number of 6.18.

Compound `COc1cccc2c1C(=O)c1c(O)c3c(c(O)c1C2=O)C[C@@](O)(C(C)=O)C[C@@H]3O[C@H]1C[C@H](N)[C@H](O)[C@H](C)O1` [Daunorubicin HCl] came in with a total cell number of 24.1.

With `C=CC1=C(C(=O)O)N2C(=O)[C@@H](NC(=O)/C(=N\O)c3csc(N)n3)[C@H]2SC1` [Cefdinir], the total cell number was -2.33.

As for `CN1C(CCl)Nc2cc(Cl)c(S(N)(=O)=O)cc2S1(=O)=O` (centres undefined) [Methyclothiazide], the total cell number is -9.64.

As for `OCc1ccccc1O[C@@H]1O[C@H](CO)[C@@H](O)[C@H](O)[C@H]1O` [Salicin], the total cell number is -13.3.

Regarding `Nc1ncnc2c1nc(Br)n2C1OC2COP(=O)(O)O[C@@H]2C1O` (some centres undefined) [8-Bromo-cAMP sodium], the total cell number is -0.722.

Turning to `C=C1CC[C@@H]2[C@](C)(CO)[C@H](O)CC[C@@]2(C)[C@@H]1C/C=C1/C(=O)OC[C@H]1O` [Andrographolide], the total cell number was -9.57.

Consider `Cc1cn([C@H]2C=C[C@@H](CO)O2)c(=O)[nH]c1=O` [Stavudine (d4T)], for which the total cell number is -0.233.

`CC(=O)NS(=O)(=O)c1ccc(N)cc1` [Sulfacetamide Sodium] yielded a total cell number of 0.39.

On to `CCN(CC)CC(=O)Nc1c(C)cccc1C` [Lidocaine hydrochloride], for which the total cell number is -1.34.

On to `CCN(CC)CC(=O)Nc1c(C)cccc1C` [Lidocaine], for which the total cell number was -1.04.

For `CC(C=CC(=O)NO)=CC(C)C(=O)c1ccc(N(C)C)cc1` (centres undefined) [Trichostatin A (TSA)], the total cell number is -19.9.

Take `c1ccc2c(CC3=NCCN3)cccc2c1` [Naphazoline HCl]: the total cell number is -1.57.

Consider `c1ccc2c(CC3=NCCN3)cccc2c1` [Naphazoline hydrochloride], for which the total cell number is -0.634.

In turn, `CC(=O)OCC(=O)[C@@]12OC(C)(C)O[C@@H]1C[C@H]1[C@@H]3C[C@H](F)C4=CC(=O)C=C[C@]4(C)[C@@]3(F)[C@@H](O)C[C@@]12C` [Fluocinonide] displayed a total cell number of 4.92.

As for `CSC(=N)NCCC[C@H](N)C(=O)O` [S-Methyl-L-thiocitrulline acetate], the total cell number is -0.614.

As to `S=C(S)N1CCCC1` [Ammonium pyrrolidinedithiocarbamate], the total cell number is -3.35.

For `NS(=O)(=O)c1cc2c(cc1Cl)NC(C1CC3C=CC1C3)NS2(=O)=O` (centres undefined) [Cyclothiazide], the total cell number worked out at 0.585.

Consider `CN(c1ccccc1CNc1nc(Nc2ccc3c(c2)CC(=O)N3)ncc1C(F)(F)F)S(C)(=O)=O`, for which the total cell number is -11.1.

Turning to `Cc1cnc(-c2cc(N3CCN(C(=O)CCS(C)(=O)=O)CC3)ncc2Cl)c(C)c1`, the total cell number is -0.754.

Turning to `Cc1c(CN2CCN(C(=O)[C@H](C)O)CC2)sc2c(N3CCOCC3)nc(-c3cnc(N)nc3)nc12`, the total cell number is -11.4.

In the case of `CN1C(=O)CC[C@H]1c1cccnc1` [(-)-Cotinine], the total cell number was -1.76.

The compound `CC(C)(CO)c1cc2cc(NC(=O)C3(c4ccc5c(c4)OC(F)(F)O5)CC3)c(F)cc2n1C[C@@H](O)CO` had a total cell number of 1.48.

As for `CC[C@@H]1C(=O)OC[C@@H]1Cc1cncn1C` [(+)-Pilocarpine hydrochloride], the total cell number is -1.32.

For `CC[C@@H]1C(=O)OC[C@@H]1Cc1cncn1C` [Pilocarpine nitrate], the total cell number is -3.94.

In the case of `CC[C@@H]1C(=O)OC[C@@H]1Cc1cncn1C` [Pilocarpine HCl], the total cell number is -1.44.

Consider `CN1CCc2c(c3ccccc3n2Cc2ccc(C(=O)NO)cc2)C1` [Tubastatin A HCl], for which the total cell number is -7.34.

`CN1CCc2c(c3ccccc3n2Cc2ccc(C(=O)NO)cc2)C1` [Tubastatin A] had a total cell number of 6.4.

Take `O=C(Nc1cc(C(F)(F)F)cc(C(F)(F)F)c1)Nc1c(Br)cc(Br)cc1-c1nn[nH]n1`: the total cell number is -1.73.

Regarding `CCn1c(=O)[nH]c2cc(Cl)c(Cl)cc21`, the total cell number is -2.56.

Consider `COc1cc2nccc(Oc3ccc(NC(=O)NC4CC4)c(Cl)c3)c2cc1C(N)=O` [Lenvatinib (E7080)], for which the total cell number was -9.34.

`CCC(C)(Oc1ccc(C2(c3ccc(OC(C)(CC)C(=O)O)cc3)CCCCC2)cc1)C(=O)O` (centres undefined) [Clinofibrate] returned a total cell number of 1.25.

`C[C@@H](O[C@H]1OCCN(Cc2nn(P(=O)(O)O)c(=O)[nH]2)[C@H]1c1ccc(F)cc1)c1cc(C(F)(F)F)cc(C(F)(F)F)c1` [Fosaprepitant dimeglumine salt]: the total cell number is -3.79.

As for `N[C@@H](Cc1c[nH]c2ccccc12)C(=O)O` [L-Tryptophan], the total cell number is -0.41.

Turning to `Nc1cc(=O)[nH]c(N)n1` [2,4-Diamino-6-pyrimidinone], the total cell number was -1.65.

As for `OC[C@H]1O[C@@H](n2cnc3c(N[C@H]4CCC[C@@H]4O)ncnc32)[C@H](O)[C@@H]1O`, the total cell number worked out at 0.458.

Turning to `Cc1ncc(-c2ccnc(Nc3ccc(S(C)(=O)=O)cc3)n2)n1C(C)C`, the total cell number is -9.56.

Take `COC1(C2=NCCN2)COc2ccccc2O1` (centres undefined): the total cell number was -0.239.

Take `CS(=O)(=O)OCCCCOS(C)(=O)=O` [Busulfan]: the total cell number was -0.973.

Take `O=C(/C=C/c1ccc(O)cc1)c1ccc(O)cc1O` [Isoliquiritigenin]: the total cell number was -3.58 ± 1.2.

For the compound `OCc1c[nH]c2ccccc12` [Indole-3-carbinol], the total cell number is -0.339.

With `N#CCNC(=O)c1ccc(-c2ccnc(Nc3ccc(N4CCOCC4)cc3)n2)cc1`, the total cell number is -12.5.

Consider `NC(=O)c1cccc(-c2cccc(OC(=O)NC3CCCCC3)c2)c1`, for which the total cell number is -0.118.

On to `Cc1[nH]c(=O)c(C#N)cc1-c1ccc2nccn2c1` [Olprinone hydrochloride], for which the total cell number was -1.44.

Consider `CC(=O)O[C@H]1C(=O)[C@@]2(C)[C@H]([C@H](OC(=O)c3ccccc3)[C@]3(O)C[C@H](OC(=O)[C@H](O)[C@@H](NC(=O)c4ccccc4)c4ccccc4)C(C)=C1C3(C)C)[C@]1(OC(C)=O)CO[C@@H]1C[C@@H]2O` [Paclitaxel], for which the total cell number was -11.8.

In the case of `N=C(N)c1ccc(N)cc1` [4-Aminobenzamidine dihydrochloride], the total cell number was -0.771.

For the compound `CCCN(CCC)CCc1cccc2c1CC(=O)N2` [Ropinirole HCl], the total cell number is -0.778.

In the case of `CCCN(CCC)CCc1cccc2c1CC(=O)N2` [Ropinirole hydrochloride], the total cell number is -1.07.

As to `COc1cccc2c1C(=O)c1c(O)c3c(c(O)c1C2=O)C[C@@](O)(C(=O)CO)C[C@@H]3O[C@H]1C[C@H](N)[C@@H](O)[C@H](C)O1` [Epirubicin HCl], the total cell number was found to be 51.3.

Regarding `Cc1nc2ccccn2c(=O)c1CCN1CCC(C(=O)c2ccc(F)cc2)CC1` [Pirenperone], the total cell number was -4.23.

`CSc1nc2cc(Cl)c(Oc3cccc(Cl)c3Cl)cc2[nH]1` [Triclabendazole]: the total cell number was -0.896.

Regarding `CCC(=O)c1ccc2c(c1)N(CCCN(C)C)c1ccccc1S2` [Propionylpromazine hydrochloride], the total cell number is -5.65.

`Nc1ccc(-c2ccc3ncc4ccc(=O)n(-c5cccc(C(F)(F)F)c5)c4c3c2)cn1` [Torin 2]: the total cell number is -11.1.

As to `CCCn1c(=O)c2[nH]c(C3CCCC3)nc2n(CCC)c1=O` [8-Cyclopentyl-1,3-dipropylxanthine], the total cell number is -1.91.

For the compound `N/C(=N\C(=O)c1nc(Cl)c(N)nc1N)NCc1ccccc1` [Benzamil hydrochloride], the total cell number is -2.91.

`O=C(CCNNC(=O)c1ccncc1)NCc1ccccc1` [Nialamide]: the total cell number was -1.28.

As for `CCCCCCCCCCCCCCCCn1cc[n+](Cc2ccccc2)c1C`, the total cell number was -16.7.

Turning to `C#Cc1cccc(Nc2ncnc3cc(OCCOC)c(OCCO)cc23)c1`, the total cell number is -11.5.

For `Cn1cnc2c(F)c(Nc3ccc(Br)cc3F)c(C(=O)NOCCO)cc21`, the total cell number is -6.75.

As to `Nc1nc(N)c(N=O)c(OCC2CCCCC2)n1`, the total cell number was -6.36.

Turning to `NC(=O)c1cnccn1` [Pyrazinamide], the total cell number was -1.15.

On to `NC(=O)c1cnccn1` [Pyrazinecarboxamide], for which the total cell number was -1.25.

Regarding `O=C(Nc1ccc(S(=O)(=O)Nc2ccccc2Cl)c(Cl)c1)c1ccccn1`, the total cell number was 0.173.

Consider `Oc1ccc(-c2nc(-c3ccc(F)cc3)c(-c3ccncc3)[nH]2)cc1`, for which the total cell number was -6.72 and -11.4.

In the case of `Cc1ccc(C(=O)Nc2ccc(CN3CCN(C)CC3)c(C(F)(F)F)c2)cc1C#Cc1cnc2[nH]ncc2c1`, the total cell number was -16.3.

On to `O=C(NC[C@H](O)CO)c1ccncc1Nc1ccc(I)cc1F`, for which the total cell number is -17.5.

`C=C[C@H]1CN2CC[C@H]1C[C@H]2[C@H](O)c1ccnc2ccc(OC)cc12` [Quinine sulfate]: the total cell number is -2.52.

For `CCOc1cc(C(=O)Nc2ccc(Cl)c(-c3nc4ccccc4[nH]3)c2)cc(OCC)c1OCC`, the total cell number is -2.15.

For `CC1(C)S[C@@H]2[C@H](NC(=O)[C@H](N)c3ccccc3)C(=O)N2[C@H]1C(=O)O` [Ampicillin sodium], the total cell number was -1.95.

With `CC1(C)S[C@@H]2[C@H](NC(=O)[C@H](N)c3ccccc3)C(=O)N2[C@H]1C(=O)O` [Ampicillin Trihydrate], the total cell number is -0.253.

Consider `Cc1ccccc1C(C(=O)NC1CCCCC1)N(C(=O)Cn1ccnc1C)c1cccc(F)c1` (centres undefined), for which the total cell number was -4.27.

As for `O=c1n(CCCN2CCN(c3cccc(Cl)c3)CC2)nc2ccccn12` [Trazodone HCl], the total cell number is -1.83.

Turning to `O=c1n(CCCN2CCN(c3cccc(Cl)c3)CC2)nc2ccccn12` [Trazodone hydrochloride], the total cell number was -2.33.

Regarding `O=C(O)c1cc(=O)[nH]c(=O)[nH]1` [Orotic acid (6-Carboxyuracil)], the total cell number is -0.896.
